# Laboratory results taken from publication PMC9911399, “Two distinct binding modes provide the RNA-binding protein RbFox with extraordinary sequence specificity”.
# Changes are numbered by the printed parent chain; changes in the protein carry UniProt numbers. Some of the results follow.
# T1: RBFOX1 RRM RbFoxmut (Fox-RRM*) (Homo sapiens, UniProt Q9NWB1 109-208, R118D;E147R;N151S;E152T)
# T1 sequence: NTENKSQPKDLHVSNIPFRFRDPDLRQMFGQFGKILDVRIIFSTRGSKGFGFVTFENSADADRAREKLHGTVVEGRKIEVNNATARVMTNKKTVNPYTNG
# B1: GUGCGAC (DNA:RNA)
# RNA: GGGAGACCGGAAUUCAGAUUGUCCGUGCGACUUAAAUCCCGUCGUAGCCACCA
# DNA 1: CAATCTGAATTCCGGTCTCCC
# DNA 2: TGGTGGCTACGACGGGATT
# B2: GUUGGUU (DNA:RNA)
# RNA: B1 RNA with G27U, C28G, A30U, C31U
# DNA 1: CAATCTGAATTCCGGTCTCCC
# DNA 2: TGGTGGCTACGACGGGATT
# B3: GCCCCGU (DNA:RNA)
# RNA: B1 RNA with U26C, G27C, G29C, A30G, C31U
# DNA 1: CAATCTGAATTCCGGTCTCCC
# DNA 2: TGGTGGCTACGACGGGATT
# B4: AAGAUCG (DNA:RNA)
# RNA: B1 RNA with G25A, U26A, C28A, G29U, A30C, C31G
# DNA 1: CAATCTGAATTCCGGTCTCCC
# DNA 2: TGGTGGCTACGACGGGATT
# B5: UUCUGUG (DNA:RNA)
# RNA: B1 RNA with G25U, G27C, C28U, A30U, C31G
# DNA 1: CAATCTGAATTCCGGTCTCCC
# DNA 2: TGGTGGCTACGACGGGATT
# B6: CCGUACU (DNA:RNA)
# RNA: B1 RNA with G25C, U26C, C28U, G29A, A30C, C31U
# DNA 1: CAATCTGAATTCCGGTCTCCC
# DNA 2: TGGTGGCTACGACGGGATT
# B7: AUGCUAA (DNA:RNA)
# RNA: B1 RNA with G25A, G29U, C31A
# DNA 1: CAATCTGAATTCCGGTCTCCC
# DNA 2: TGGTGGCTACGACGGGATT
# B8: UACAGUU (DNA:RNA)
# RNA: B1 RNA with G25U, U26A, G27C, C28A, A30U, C31U
# DNA 1: CAATCTGAATTCCGGTCTCCC
# DNA 2: TGGTGGCTACGACGGGATT
# B9: CGUCAUU (DNA:RNA)
# RNA: B1 RNA with G25C, U26G, G27U, G29A, A30U, C31U
# DNA 1: CAATCTGAATTCCGGTCTCCC
# DNA 2: TGGTGGCTACGACGGGATT
# B10: AGUCUCU (DNA:RNA)
# RNA: B1 RNA with G25A, U26G, G27U, G29U, A30C, C31U
# DNA 1: CAATCTGAATTCCGGTCTCCC
# DNA 2: TGGTGGCTACGACGGGATT
# B11: CUCGAGG (DNA:RNA)
# RNA: B1 RNA with G25C, G27C, C28G, G29A, A30G, C31G
# DNA 1: CAATCTGAATTCCGGTCTCCC
# DNA 2: TGGTGGCTACGACGGGATT
# B12: UUCCGUG (DNA:RNA)
# RNA: B1 RNA with G25U, G27C, A30U, C31G
# DNA 1: CAATCTGAATTCCGGTCTCCC
# DNA 2: TGGTGGCTACGACGGGATT
# B13: GGUUAGA (DNA:RNA)
# RNA: B1 RNA with U26G, G27U, C28U, G29A, A30G, C31A
# DNA 1: CAATCTGAATTCCGGTCTCCC
# DNA 2: TGGTGGCTACGACGGGATT
# B14: GCCCGUG (DNA:RNA)
# RNA: B1 RNA with U26C, G27C, A30U, C31G
# DNA 1: CAATCTGAATTCCGGTCTCCC
# DNA 2: TGGTGGCTACGACGGGATT
# B15: CGAGAAC (DNA:RNA)
# RNA: B1 RNA with G25C, U26G, G27A, C28G, G29A
# DNA 1: CAATCTGAATTCCGGTCTCCC
# DNA 2: TGGTGGCTACGACGGGATT
# B16: AGCUUUC (DNA:RNA)
# RNA: B1 RNA with G25A, U26G, G27C, C28U, G29U, A30U
# DNA 1: CAATCTGAATTCCGGTCTCCC
# DNA 2: TGGTGGCTACGACGGGATT
# B17: CUUGCAC (DNA:RNA)
# RNA: B1 RNA with G25C, G27U, C28G, G29C
# DNA 1: CAATCTGAATTCCGGTCTCCC
# DNA 2: TGGTGGCTACGACGGGATT
# B18: GUUUUUG (DNA:RNA)
# RNA: B1 RNA with G27U, C28U, G29U, A30U, C31G
# DNA 1: CAATCTGAATTCCGGTCTCCC
# DNA 2: TGGTGGCTACGACGGGATT
# B19: AGGAUCA (DNA:RNA)
# RNA: B1 RNA with G25A, U26G, C28A, G29U, A30C, C31A
# DNA 1: CAATCTGAATTCCGGTCTCCC
# DNA 2: TGGTGGCTACGACGGGATT
# B20: GCGGAUC (DNA:RNA)
# RNA: B1 RNA with U26C, C28G, G29A, A30U
# DNA 1: CAATCTGAATTCCGGTCTCCC
# DNA 2: TGGTGGCTACGACGGGATT
# Target: T1, RBFOX1 RRM RbFoxmut (Fox-RRM*)
# Assay: EMSA; HiTS-Eq, 1 nM pool, 10 min; buffer printed only for the single-RNA assays: 10 mM Tris pH 7.5, 150 mM NaCl, 3.4 mM EDTA, 0.001% NP-40, 30 C
# Conditions: tags: His6 N-terminal (pET28a); label: 5' 32P
# How it was run: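 Purified RbFox RRM (wild type or mutant) was equilibrated for 10 min in 50 µL with 1 nM of a 5′-radiolabelled pool of RNA with 7 randomized nucleotides, its flanks annealed to DNA oligonucleotides, across increasing protein concentrations. Free RNA was separated by 8% native PAGE, excised, reverse-transcribed, PCR-barcoded and sequenced on an Illumina HiSeq 2500. Relative association constants came from read-count changes of each variant against the control reaction, normalised to the cognate motif.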
row,Binder,binding signal
1,B1,0.0808 KA relative to UGCAUGU
2,B2,0.115 KA relative to UGCAUGU
3,B3,0.1 KA relative to UGCAUGU
4,B4,0.14 KA relative to UGCAUGU
5,B5,0.133 KA relative to UGCAUGU
6,B6,0.085 KA relative to UGCAUGU
7,B7,0.166 KA relative to UGCAUGU
8,B8,0.0607 KA relative to UGCAUGU
9,B9,0.0884 KA relative to UGCAUGU
10,B10,0.0783 KA relative to UGCAUGU
11,B11,0.0887 KA relative to UGCAUGU
12,B12,0.0971 KA relative to UGCAUGU
13,B13,0.087 KA relative to UGCAUGU
14,B14,0.131 KA relative to UGCAUGU
15,B15,0.0857 KA relative to UGCAUGU
16,B16,0.0646 KA relative to UGCAUGU
17,B17,0.0974 KA relative to UGCAUGU
18,B18,0.114 KA relative to UGCAUGU
19,B19,0.153 KA relative to UGCAUGU
20,B20,0.136 KA relative to UGCAUGU
